Source: paper PMC12820563
Some of the results follow. The list includes weakly bound sequences.

molecular target: T1, MBP-FoxP3dN (UniProt Q99JB6); experiment: PD-seq (MBP pull-down with sequencing); details: 20 mM Tris-HCl pH 7.5, 100 mM NaCl, 1.5 mM MgCl2, 0.4 uM protein, 0.1 uM dsDNA library, 30 min, room temperature, amylose pull-down; high values mean tight binding; double strand, one strand shown
T1 sequence: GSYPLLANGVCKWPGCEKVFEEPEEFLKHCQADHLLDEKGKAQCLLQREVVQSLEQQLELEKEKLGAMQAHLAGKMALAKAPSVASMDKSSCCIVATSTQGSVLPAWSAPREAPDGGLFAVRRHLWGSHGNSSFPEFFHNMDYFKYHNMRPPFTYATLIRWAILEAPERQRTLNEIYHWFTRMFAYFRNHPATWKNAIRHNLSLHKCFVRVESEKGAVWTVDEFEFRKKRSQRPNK

Question: “GATGATTGTTCTCCCAGCTGATGAATTGTGGGTTTCGAGTAAACAAATTTTCCTAATCTTTCTGTTCAAGCGCCATCTAC” was tested. Which binding signal (RPM ratio (pull-down/input)) did it give?
Answer: The binding signal (RPM ratio (pull-down/input)) was 1.32.

Question: With “GATGATTGTTCTCCCAGCTGATGAATTCGTCACATCGAGTAAACAAATTTTCCTAATCTTTCTGTTCAAGCGCCATCTAC” as the sequence, how does the binding signal (RPM ratio (pull-down/input)) read?
Answer: The binding signal (RPM ratio (pull-down/input)) was 0.953.

Question: With “GATGATTGTTCTCCCAGCTGATGAATTTGACCCATCGAGTAAACAAATTTTCCTAATCTTTCTGTTCAAGCGCCATCTAC” as the sequence, how does the binding signal (RPM ratio (pull-down/input)) read?
Answer: Its binding signal (RPM ratio (pull-down/input)) is 0.388.

Question: With “GATGATTGTTCTCCCAGCTGATGAATTCCCTTTATCGAGTAAACAAATTTTCCTAATCTTTCTGTTCAAGCGCCATCTAC” as the sequence, how does the binding signal (RPM ratio (pull-down/input)) read?
Answer: Its binding signal (RPM ratio (pull-down/input)) is 0.403.

Question: With “GATGATTGTTCTCCCAGCTGATGAATTTAATAATTCGAGTAAACAAATTTTCCTAATCTTTCTGTTCAAGCGCCATCTAC” as the sequence, how does the binding signal (RPM ratio (pull-down/input)) read?
Answer: The binding signal (RPM ratio (pull-down/input)) was 0.48.

Question: How did the binding signal (RPM ratio (pull-down/input)) turn out when “GATGATTGTTCTCCCAGCTGATGAATTCGTTTGCTCGAGTAAACAAATTTTCCTAATCTTTCTGTTCAAGCGCCATCTAC” was run?
Answer: Its binding signal (RPM ratio (pull-down/input)) is 4.62.

Question: “GATGATTGTTCTCCCAGCTGATGAATTATGACTTTCGAGTAAACAAATTTTCCTAATCTTTCTGTTCAAGCGCCATCTAC” was tested. Which binding signal (RPM ratio (pull-down/input)) did it give?
Answer: Its binding signal (RPM ratio (pull-down/input)) is 1.49.

Question: Which binding signal (RPM ratio (pull-down/input)) does the source give for “GATGATTGTTCTCCCAGCTGATGAATTATGTGTTTCGAGTAAACAAATTTTCCTAATCTTTCTGTTCAAGCGCCATCTAC” here?
Answer: Its binding signal (RPM ratio (pull-down/input)) is 4.42.

Question: With “GATGATTGTTCTCCCAGCTGATGAATTGGTCGAGTCGAGTAAACAAATTTTCCTAATCTTTCTGTTCAAGCGCCATCTAC” as the sequence, how does the binding signal (RPM ratio (pull-down/input)) read?
Answer: The binding signal (RPM ratio (pull-down/input)) was 0.27.

Question: With “GATGATTGTTCTCCCAGCTGATGAATTTTCGTCGTCGAGTAAACAAATTTTCCTAATCTTTCTGTTCAAGCGCCATCTAC” as the sequence, how does the binding signal (RPM ratio (pull-down/input)) read?
Answer: The binding signal (RPM ratio (pull-down/input)) was 0.408.

Question: For “GATGATTGTTCTCCCAGCTGATGAATTGTGAGCCTCGAGTAAACAAATTTTCCTAATCTTTCTGTTCAAGCGCCATCTAC”, which binding signal (RPM ratio (pull-down/input)) is on record?
Answer: The binding signal (RPM ratio (pull-down/input)) was 1.

Question: For “GATGATTGTTCTCCCAGCTGATGAATTGCATTATTCGAGTAAACAAATTTTCCTAATCTTTCTGTTCAAGCGCCATCTAC”, which binding signal (RPM ratio (pull-down/input)) is on record?
Answer: Its binding signal (RPM ratio (pull-down/input)) is 3.3.

Question: How did the binding signal (RPM ratio (pull-down/input)) turn out when “GATGATTGTTCTCCCAGCTGATGAATTTGCACCTTCGAGTAAACAAATTTTCCTAATCTTTCTGTTCAAGCGCCATCTAC” was run?
Answer: Its binding signal (RPM ratio (pull-down/input)) is 0.765.

Question: For “GATGATTGTTCTCCCAGCTGATGAATTTGAGTCGTCGAGTAAACAAATTTTCCTAATCTTTCTGTTCAAGCGCCATCTAC”, which binding signal (RPM ratio (pull-down/input)) is on record?
Answer: The binding signal (RPM ratio (pull-down/input)) was 0.775.

Question: “GATGATTGTTCTCCCAGCTGATGAATTGTGTGGTTCGAGTAAACAAATTTTCCTAATCTTTCTGTTCAAGCGCCATCTAC” was tested. Which binding signal (RPM ratio (pull-down/input)) did it give?
Answer: Its binding signal (RPM ratio (pull-down/input)) is 3.74.

Question: Which binding signal (RPM ratio (pull-down/input)) does the source give for “GATGATTGTTCTCCCAGCTGATGAATTGGCCCTCTCGAGTAAACAAATTTTCCTAATCTTTCTGTTCAAGCGCCATCTAC” here?
Answer: Its binding signal (RPM ratio (pull-down/input)) is 0.358.

Question: For “GATGATTGTTCTCCCAGCTGATGAATTGTTTGCATCGAGTAAACAAATTTTCCTAATCTTTCTGTTCAAGCGCCATCTAC”, which binding signal (RPM ratio (pull-down/input)) is on record?
Answer: The binding signal (RPM ratio (pull-down/input)) was 6.03.

Question: “GATGATTGTTCTCCCAGCTGATGAATTGGAGAAATCGAGTAAACAAATTTTCCTAATCTTTCTGTTCAAGCGCCATCTAC” was tested. Which binding signal (RPM ratio (pull-down/input)) did it give?
Answer: The binding signal (RPM ratio (pull-down/input)) was 0.287.

Question: “GATGATTGTTCTCCCAGCTGATGAATTCAATGAGTCGAGTAAACAAATTTTCCTAATCTTTCTGTTCAAGCGCCATCTAC” was tested. Which binding signal (RPM ratio (pull-down/input)) did it give?
Answer: Its binding signal (RPM ratio (pull-down/input)) is 0.453.

Question: For “GATGATTGTTCTCCCAGCTGATGAATTAAACCCCTCGAGTAAACAAATTTTCCTAATCTTTCTGTTCAAGCGCCATCTAC”, which binding signal (RPM ratio (pull-down/input)) is on record?
Answer: The binding signal (RPM ratio (pull-down/input)) was 0.297.

Question: “GATGATTGTTCTCCCAGCTGATGAATTTAGCTGTTCGAGTAAACAAATTTTCCTAATCTTTCTGTTCAAGCGCCATCTAC” was tested. Which binding signal (RPM ratio (pull-down/input)) did it give?
Answer: Its binding signal (RPM ratio (pull-down/input)) is 1.7.

Question: “GATGATTGTTCTCCCAGCTGATGAATTGTCTGTGTCGAGTAAACAAATTTTCCTAATCTTTCTGTTCAAGCGCCATCTAC” was tested. Which binding signal (RPM ratio (pull-down/input)) did it give?
Answer: The binding signal (RPM ratio (pull-down/input)) was 0.563.

Question: Which binding signal (RPM ratio (pull-down/input)) does the source give for “GATGATTGTTCTCCCAGCTGATGAATTCTAGATGTCGAGTAAACAAATTTTCCTAATCTTTCTGTTCAAGCGCCATCTAC” here?
Answer: The binding signal (RPM ratio (pull-down/input)) was 0.394.

Question: How did the binding signal (RPM ratio (pull-down/input)) turn out when “GATGATTGTTCTCCCAGCTGATGAATTCAAACCATCGAGTAAACAAATTTTCCTAATCTTTCTGTTCAAGCGCCATCTAC” was run?
Answer: The binding signal (RPM ratio (pull-down/input)) was 0.347.

Question: With “GATGATTGTTCTCCCAGCTGATGAATTTAAACGTTCGAGTAAACAAATTTTCCTAATCTTTCTGTTCAAGCGCCATCTAC” as the sequence, how does the binding signal (RPM ratio (pull-down/input)) read?
Answer: The binding signal (RPM ratio (pull-down/input)) was 0.39.

Question: “GATGATTGTTCTCCCAGCTGATGAATTGATGCACTCGAGTAAACAAATTTTCCTAATCTTTCTGTTCAAGCGCCATCTAC” was tested. Which binding signal (RPM ratio (pull-down/input)) did it give?
Answer: The binding signal (RPM ratio (pull-down/input)) was 5.09.

Question: Which binding signal (RPM ratio (pull-down/input)) does the source give for “GATGATTGTTCTCCCAGCTGATGAATTTCGCTTTTCGAGTAAACAAATTTTCCTAATCTTTCTGTTCAAGCGCCATCTAC” here?
Answer: The binding signal (RPM ratio (pull-down/input)) was 2.49.

Question: How did the binding signal (RPM ratio (pull-down/input)) turn out when “GATGATTGTTCTCCCAGCTGATGAATTTACGTCGTCGAGTAAACAAATTTTCCTAATCTTTCTGTTCAAGCGCCATCTAC” was run?
Answer: The binding signal (RPM ratio (pull-down/input)) was 0.839.

Question: How did the binding signal (RPM ratio (pull-down/input)) turn out when “GATGATTGTTCTCCCAGCTGATGAATTTAGATGCTCGAGTAAACAAATTTTCCTAATCTTTCTGTTCAAGCGCCATCTAC” was run?
Answer: The binding signal (RPM ratio (pull-down/input)) was 1.4.

Question: “GATGATTGTTCTCCCAGCTGATGAATTAGAGTAATCGAGTAAACAAATTTTCCTAATCTTTCTGTTCAAGCGCCATCTAC” was tested. Which binding signal (RPM ratio (pull-down/input)) did it give?
Answer: Its binding signal (RPM ratio (pull-down/input)) is 0.504.

Question: How did the binding signal (RPM ratio (pull-down/input)) turn out when “GATGATTGTTCTCCCAGCTGATGAATTCATCAATTCGAGTAAACAAATTTTCCTAATCTTTCTGTTCAAGCGCCATCTAC” was run?
Answer: Its binding signal (RPM ratio (pull-down/input)) is 0.425.

Question: Which binding signal (RPM ratio (pull-down/input)) does the source give for “GATGATTGTTCTCCCAGCTGATGAATTCCTCCTTTCGAGTAAACAAATTTTCCTAATCTTTCTGTTCAAGCGCCATCTAC” here?
Answer: Its binding signal (RPM ratio (pull-down/input)) is 0.257.

Question: For “GATGATTGTTCTCCCAGCTGATGAATTAATGGCCTCGAGTAAACAAATTTTCCTAATCTTTCTGTTCAAGCGCCATCTAC”, which binding signal (RPM ratio (pull-down/input)) is on record?
Answer: Its binding signal (RPM ratio (pull-down/input)) is 0.687.

Question: “GATGATTGTTCTCCCAGCTGATGAATTAGACTGTTCGAGTAAACAAATTTTCCTAATCTTTCTGTTCAAGCGCCATCTAC” was tested. Which binding signal (RPM ratio (pull-down/input)) did it give?
Answer: Its binding signal (RPM ratio (pull-down/input)) is 0.488.

Question: How did the binding signal (RPM ratio (pull-down/input)) turn out when “GATGATTGTTCTCCCAGCTGATGAATTTCTATTGTCGAGTAAACAAATTTTCCTAATCTTTCTGTTCAAGCGCCATCTAC” was run?
Answer: The binding signal (RPM ratio (pull-down/input)) was 0.631.

Question: How did the binding signal (RPM ratio (pull-down/input)) turn out when “GATGATTGTTCTCCCAGCTGATGAATTGCCGCTGTCGAGTAAACAAATTTTCCTAATCTTTCTGTTCAAGCGCCATCTAC” was run?
Answer: The binding signal (RPM ratio (pull-down/input)) was 0.704.

Question: How did the binding signal (RPM ratio (pull-down/input)) turn out when “GATGATTGTTCTCCCAGCTGATGAATTCGTTAATTCGAGTAAACAAATTTTCCTAATCTTTCTGTTCAAGCGCCATCTAC” was run?
Answer: Its binding signal (RPM ratio (pull-down/input)) is 0.481.

Question: With “GATGATTGTTCTCCCAGCTGATGAATTCAATCAATCGAGTAAACAAATTTTCCTAATCTTTCTGTTCAAGCGCCATCTAC” as the sequence, how does the binding signal (RPM ratio (pull-down/input)) read?
Answer: Its binding signal (RPM ratio (pull-down/input)) is 0.424.

Question: With “GATGATTGTTCTCCCAGCTGATGAATTCCCGAAATCGAGTAAACAAATTTTCCTAATCTTTCTGTTCAAGCGCCATCTAC” as the sequence, how does the binding signal (RPM ratio (pull-down/input)) read?
Answer: Its binding signal (RPM ratio (pull-down/input)) is 0.229.

Question: “GATGATTGTTCTCCCAGCTGATGAATTAGGGGCATCGAGTAAACAAATTTTCCTAATCTTTCTGTTCAAGCGCCATCTAC” was tested. Which binding signal (RPM ratio (pull-down/input)) did it give?
Answer: Its binding signal (RPM ratio (pull-down/input)) is 0.844.
